Drawing on PubChem BioAssay (NCI), this text covers TGI and GI50 for 81 molecules.

SMILES strings stand for the structures. Values joined by “and” are separate entries in the source; they are usually repeats but may differ in a detail not shown here. Equal values may be shown once.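 Dose response: 5 concentrations. Exposure: 48 h. Format: 96-well plates. Endpoint: linear interpolation; highest concentration if not reached. Here, GI50 denotes the concentration required for 50% inhibition of growth. TGI marks complete inhibition of growth.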 Where only a bound is given, the exact number is not on record here.

The subject of the experiment is NCI-H322M lung. Put plainly: inhibition of tumour cell growth, NCI panel, 48 h.
In turn, `CC(=O)c1c2c(cc3c1CC1(Cc4cc5c(cc4C1)C(=O)CCC5)C3)CCCC2` (stereo not drawn) had a TGI of more than 100 µM. `CNn1c(-c2ccc(C)cc2)n[nH]c1=O` registered a TGI of more than 100 µM. Consider `CNCC(=O)NC(CO)C(=O)NC(CO)C(=O)NC1C(C(N)=O)OC(n2ccc(N)nc2=O)C(O)C1O` (stereo not drawn), for which the GI50 was 8.59 µg/mL and the TGI was more than 50 µg/mL. In the case of `C=C1C(=O)O[C@H]2[C@H]1CC/C(COC(=O)CCCCCCCC(=O)OC/C1=C/CC[C@@]3(C)O[C@H]3[C@H]3OC(=O)C(=C)[C@@H]3CC1)=C\CC[C@@]1(C)O[C@@H]21`, the GI50 was 10.2 µM and the TGI was determined as 22.1 µM.

`O=C1CC(Cc2n[nH]c3c2CCCC3)CC(=O)N1` came in with a TGI of more than 100 µM. For `COC(=O)c1ccc(NC(=O)c2ccc(NC3=C(Cl)C(=O)N(Cc4ccccc4)C3=O)cc2)cc1`, the GI50 was 22.1 µM and the TGI is 60.4 µM. In turn, `COc1cc(C2c3cc4c(cc3[C@@H](Nc3ccc([N+](=O)[O-])cc3)C3COC(=O)[C@H]23)OCO4)cc(OC)c1O` (stereo partly drawn) showed a TGI of 56.1 µM. As to `CC1=NN(c2cccc(Cl)c2)C(=O)/C1=C\C=C\c1ccccc1`, the GI50 was 28.1 µM and the TGI was more than 100 µM. Take `Cc1cccc2c1Sc1ccccc1C2NC(=O)CN(C)C` (stereo not drawn): the TGI was more than 100 µM. Regarding `Cc1ccc(N=Nc2c(O)ccc3n[nH]nc23)cc1`, the GI50 is 17.2 µM and the TGI is 80.9 µM. With `Cc1ccc2c(=O)c(-c3nnc(NC4CCCCC4)s3)c[nH]c2n1`, the TGI was more than 100 µM.

For the molecule `c1ccc(C2=NN=C3C(c4ccccc4)=Nc4ccccc4N3C2)cc1`, the TGI was more than 54.5 µM. On the same count and under the same terms, the result for `CSC1(C(=O)O)C2CCC3C2CCC31` (stereo not drawn) reads more than 100 µM; that for `C1=Nc2ccc(cc2)-c2ccc(cc2)N=Cc2ccc(cc2)OCc2cccc(n2)COc2ccc1cc2`, more than 100 µM.

The molecule `COc1ccc(/C=C2\Sc3nnc(-c4ccccc4)n3N=C2c2cc(F)c(Cl)cc2Cl)cc1OC` showed a TGI of more than 100 µM. `COc1ccc(/C=C2\COc3ccc(O)c(O)c3C2=O)cc1OC`: the GI50 was 2.65 µM and the TGI is 34.1 µM. As to `CC(=O)CCc1ccc(Oc2c3c(nc4ccccc24)OCC3)cc1`, the GI50 was 86.1 µM and the TGI is more than 100 µM. The molecule `COC(=O)C12C34C=CC5(CCC6(C=CC1(CC3)O6)C52C(=O)OC)O4` (stereo not drawn) returned a TGI of more than 100 µM. As to `O=C1C(Cl)=C(Cl)C(=O)N1c1ccc(F)cc1`, the TGI is more than 94.8 µM. On to `C[C@@]1(C(=O)O)CCC[C@]2(C)C1CC[C@]13C[C@@](O)(CO)[C@](O)(CC[C@]12O)C3` (stereo partly drawn), for which the GI50 is more than 100 µM and the TGI was more than 100 µM. Turning to `CC1CC(=NC2CCCCC2)Nc2ccccc2N1Cc1ccccc1` (stereo not drawn), the TGI stood at 26.5 µM. Still for that read-out and setting: the result for `Cc1ccc(C(C)C)c(OCC(=O)N/N=C/c2c[nH]c3ccc(Br)cc23)c1` reads 8.29 µM. Take `COc1ccc(C(OCC2OC3(COC(c4ccccc4)(c4ccc(OC)cc4)c4ccc(OC)cc4)C(Oc4nc(=O)ccn43)C2O)(c2ccccc2)c2ccc(OC)cc2)cc1` (stereo not drawn): the TGI was more than 100 µM.

`NCCCC(N=Cc1nc(-c2ccccc2)oc1O)C(=O)O` (stereo not drawn) gave a TGI of more than 100 µM. For `CC(C)(O)CCc1cccc(C(=O)c2cnn(-c3ccc(F)cc3)c2N)c1`, the GI50 is more than 25 µM and the TGI was more than 25 µM. The molecule `CN(C)N=Nc1cccc(C(N)=O)c1` showed a TGI of more than 100 µM. In turn, `CC(=O)OC1CC(OC2C(O)CC(OC3C(O)CC(OC4CCC5(C)C(CCC6C5CCC5(C)C(C7=CC(=O)OC7)CCC65O)C4)OC3C)OC2C)OC(C)C1OC1OC(CO)C(O)C(O)C1O` (stereo not drawn) registered a TGI of 0.133 µM. Same read-out and setting: in the case of `CC1(C2COC(=O)C2)SCCCS1` (stereo not drawn) it was more than 100 µM. Regarding `CC(C)c1[nH]nc2c(NCc3ccc(-c4ccccn4)cc3)nc(SCCN)nc12`, the GI50 is 0.0205 µM and the TGI is 11.4 µM.

For `CC(C)[C@@H]1CC[C@@H](C)C[C@H]1OC(=O)/C=C1\C(C(=O)O[C@@H]2C[C@H](C)CC[C@H]2C(C)C)[C@H]2C=C[C@@H]1O2` (stereo partly drawn), the TGI is more than 100 µM. Molecule `O=C(COC(=O)c1cccc2c(=O)c3ccccc3[nH]c12)Nc1ccc(Cl)cc1` had a TGI of more than 100 µM. For the molecule `CC(=O)c1ccc2c3c1[C@H]1O[C@H]1c1cccc(c1-3)[C@@H]1O[C@H]21`, the TGI worked out at 9.73 µM. Consider `O=C1C(c2c(O)[nH]c3ccc(Cl)cc23)=Nc2ccccc21`, for which the TGI was more than 100 µM.

Regarding `Cc1nc2sc(C(=O)Nc3ccccc3)c(N)c2cc1C(O)c1ccccc1` (stereo not drawn), the GI50 is 0.608 µM and the TGI was more than 100 µM. The molecule `Cc1cc(Cl)ccc1N=C1NC(=O)C(CC(=O)Nc2cccc(C)c2C)S1` (stereo not drawn) showed a TGI of more than 100 µM.

Consider `C[C@@H](CS[As](C)C)C(=O)N1CCC[C@H]1C(=O)O`, for which the GI50 is 2.7 µM and the TGI came out at 10.4 µM.

With `CCOC(=O)C1=C(O)C(=O)c2ccoc2C1=O`, the TGI is more than 100 µM.

The molecule `Cc1cc(S(=O)(=O)NC2=NCCCN2)c(S)cc1Cl` had a TGI of more than 100 µM. `COc1c2cc([N+](=O)[O-])cc1CN(C(=O)C(F)(F)F)CCOCCN(C(=O)C(F)(F)F)C2` displayed a TGI of more than 100 µM. `O=[N+]([O-])c1cccc(-c2cn3c(n2)Cc2ccccc2C3)c1` returned a TGI of more than 100 µM.

Molecule `NNC(=O)CCc1ccc2ccc3ccccc3c2c1` yielded a TGI of more than 100 µM.

`O=C1NC2(CCCCC2)C2CCCCC=C12` (stereo not drawn) yielded a TGI of more than 100 µM.

The molecule `COc1cc2c(c(OC)c1OC)C(=O)[C@@H](O)[C@H]2NC(N)=O` registered a TGI of more than 100 µM. For the molecule `Cc1cccc(Nc2nc3ccccc3nc2NS(=O)(=O)c2ccccc2)c1`, the TGI was more than 100 µM. `Cc1c(Cl)cccc1NC(=O)c1sc2nc3c(cc2c1N)C(=O)CCC3`: the GI50 was 0.219 µM and the TGI is more than 100 µM. For `C=CCC(N[C@H](CO)c1ccccc1)c1ccccn1` (stereo partly drawn), the GI50 is more than 100 µM and the TGI was more than 100 µM. Regarding `Cc1ccc2c(n1)NC(=O)C(Cc1ccccc1)(N=[N+]=[N-])C2=O` (stereo not drawn), the TGI was more than 100 µM. Take `COc1ccc(/C=N/N=C(\N)NO)cc1F`: the TGI is more than 100 µM. Take `CC(=Nc1cccc(Cl)c1)c1ccncc1`: the TGI is more than 100 µM. Consider `O=C(N/N=C/c1cc(Cl)ccc1O)c1ccccc1Nc1ccnc(C(F)(F)F)c1`, for which the GI50 is 0.586 µM and the TGI worked out at 32.8 µM.

As for `CCCCCCCCC(C)CCCCCCCCC(=O)OCC(COP(=O)([O-])OCC[N+](C)(C)C)OC(=O)CCCCCCCCC(C)CCCCCCCC` (stereo not drawn), the TGI was more than 100 µM. Same read-out and setting: in the case of `CCCCCCc1cc2cc(-c3cn4c(n3)sc3ccccc34)c(=O)oc2cc1O` it was more than 100 µM; in that of `CC(C)(C)n1c(=O)n(-c2ccccc2)n(C(C)(C)C)c1=O`, more than 100 µM; in that of `Cc1c(NC(=O)Nc2c(Cl)cccc2Cl)c(=O)n(-c2ccccc2)n1C`, more than 100 µM. Still for that read-out and setting: the result for `COc1ccc(C[C@@H](C(=O)O[C@H](C)[C@H](NC(=O)[C@@H](CC(C)C)N(C)C(=O)C2CCCN2C(=O)[C@H](C)O)C(=O)N2CCCCNC(=O)[C@@H](C)C(=O)[C@H](C(C)C)OC(=O)C[C@H](O)[C@H]2CC(C)C)N(C)C(C)=O)cc1` (stereo partly drawn) reads more than 50 µM; that for `CC(C)=CCC/C(C)=C/Cc1c(O)c(C)cc2c1[nH]c1cc(O)ccc12`, more than 25 µM. Still for that read-out and setting: in the case of `C=CCSC1=N/C(=C\c2ccc(OC)cc2)C(=O)N1CC=C` it was more than 100 µM. On to `O=C(N=Nc1c(Cl)c(O)c2ccccc2c1O)C(=O)Nc1cccc(C(F)(F)F)c1`, for which the GI50 is 2.87 µM and the TGI was 9.74 µM. Molecule `Nn1c(-c2cccc(Cl)c2)nc2ccccc2c1=O` registered a TGI of more than 100 µM. In the case of `COc1cc2c3c(n(CCN4CCOCC4)c(=O)c2cc1OC)-c1ccccc1C3=O`, the GI50 is more than 100 µM and the TGI was more than 100 µM. As to `Cc1cc2c(nn1)CCc1c-2no[n+]1[O-]`, the TGI was more than 100 µM. For the molecule `CCOC(=O)[C@@H]1ON2O[C@@H](OC3CCCCC3c3ccccc3)C[C@H]3OC(=O)[C@@H]1C32` (stereo partly drawn), the TGI was more than 100 µM. For `O=C1C(Cl)=C(Cl)C(=O)N1c1cccc(C(F)(F)F)c1`, the TGI is more than 100 µM. For the molecule `Oc1ccc(Cl)cc1Sc1cc(Cl)ccc1O`, the GI50 was 14.1 µM; the TGI was 50.5 µM and 32.7 µM. `CCOC(=O)C(=O)Nc1c(C)cccc1C(C)(C)C`: the TGI is more than 100 µM. For the molecule `CC(C)(C)C(=O)c1c(C(F)(F)F)n([O-])c2cc(Cl)c(Cl)cc2[n+]1=O`, the GI50 was 1.66 µM and the TGI was 3.05 µM.

Take `C[C@H](CCC(=O)NCCS(=O)(=O)O)[C@H]1CC[C@H]2[C@@H]3[C@H](O)C[C@@H]4C[C@H](O)CC[C@]4(C)[C@H]3CC[C@]12C`: the TGI is more than 100 µM. On to `COc1ccc2c(CCCc3ccc(Cl)cc3Cl)c3[n+](cc2c1OC)CCc1cc2c(cc1-3)OCO2`, for which the GI50 is 1.81 µM and the TGI was found to be 5.71 µM. Molecule `O=C1C=C(NCC(c2ccccc2)c2ccccc2)C(=O)c2ncccc21` returned a TGI of 8.1 µM. `CCN(CC)S(=O)(=O)c1cccc(-c2ccc3c(NC(=O)C4CC4)n[nH]c3c2)c1`: the GI50 was 4.81 µM and the TGI is more than 6.25 µM. `CC(=O)[CH-]C(=O)c1ccccc1.CC(=O)[CH-]C(=O)c1ccccc1.CC[C@H](/C=C/C(C)[C@H]1CCC2[C@@H]3CC=C4C[C@@H]([O-])CC[C@]4(C)C3CC[C@@]21C)C(C)C.CC[C@H](/C=C/C(C)[C@H]1CCC2[C@@H]3CC=C4C[C@@H]([O-])CC[C@]4(C)C3CC[C@@]21C)C(C)C.Cl.[Ti+4]` (stereo partly drawn): the GI50 is more than 25 µM and the TGI was more than 25 µM. `Nc1ccc(Cn2ccc3c4c(N)nc(N)nc4ccc32)cc1` returned a TGI of 16.4 µM.

As for `COC(=O)c1ccc(C(=O)OC)c2nc3cc(Cl)ccc3nc12`, the TGI was more than 100 µM. Same read-out and setting: the result for `CCOC(=O)CC(=O)Nc1cccc2sc3ncccc3c(=O)c12` reads more than 100 µM. In the case of `CO/C=C1\OC(=O)C=C1OC`, the TGI is more than 100 µM.

Consider `Clc1ccc(C(Cc2ccccc2)c2c(Cl)nc(N3CCNCC3)nc2Cl)cc1` (stereo not drawn), for which the TGI is 33.8 µM. For `CC(C)OC(=O)C1(C(C)C)CCc2ccc(C(=O)CCC(=O)O)cc21` (stereo not drawn), the TGI was more than 100 µM. Take `CC(=O)N1C(CCc2ccccc2)CC(C)(C=O)C1Cc1ccc(O[Si](C(C)C)(C(C)C)C(C)C)cc1` (stereo not drawn): the TGI is 26.8 µM. On the same count and under the same terms, the result for `CC(C)N1C(C)[C@@H](c2ccccc2)O[P@@]1(=O)CC1=CCCCC1` (stereo partly drawn) reads more than 100 µM; that for `CO[C@@H]1C[C@H]2[C@@H]3CC[C@H]([C@H](C)COC(C)=O)[C@@]3(C)CC[C@@H]2[C@@]2(C)CC[C@H]3C[C@]312`, more than 100 µM; that for `COc1cc([C@@H]2OC(=O)C3C2C(=O)O[C@H]3c2ccc(O)c(OC)c2)ccc1O` (stereo partly drawn), more than 100 µM.
